About 2,200 (0.71%) of roughly 310,000 compounds showed an effect of 50% or more. Effects have a minus sign here. Some of the results follow.

human ether-à-go-go-related gene (hERG) potassium channel, sequence (Q12809 whole entry, looked up): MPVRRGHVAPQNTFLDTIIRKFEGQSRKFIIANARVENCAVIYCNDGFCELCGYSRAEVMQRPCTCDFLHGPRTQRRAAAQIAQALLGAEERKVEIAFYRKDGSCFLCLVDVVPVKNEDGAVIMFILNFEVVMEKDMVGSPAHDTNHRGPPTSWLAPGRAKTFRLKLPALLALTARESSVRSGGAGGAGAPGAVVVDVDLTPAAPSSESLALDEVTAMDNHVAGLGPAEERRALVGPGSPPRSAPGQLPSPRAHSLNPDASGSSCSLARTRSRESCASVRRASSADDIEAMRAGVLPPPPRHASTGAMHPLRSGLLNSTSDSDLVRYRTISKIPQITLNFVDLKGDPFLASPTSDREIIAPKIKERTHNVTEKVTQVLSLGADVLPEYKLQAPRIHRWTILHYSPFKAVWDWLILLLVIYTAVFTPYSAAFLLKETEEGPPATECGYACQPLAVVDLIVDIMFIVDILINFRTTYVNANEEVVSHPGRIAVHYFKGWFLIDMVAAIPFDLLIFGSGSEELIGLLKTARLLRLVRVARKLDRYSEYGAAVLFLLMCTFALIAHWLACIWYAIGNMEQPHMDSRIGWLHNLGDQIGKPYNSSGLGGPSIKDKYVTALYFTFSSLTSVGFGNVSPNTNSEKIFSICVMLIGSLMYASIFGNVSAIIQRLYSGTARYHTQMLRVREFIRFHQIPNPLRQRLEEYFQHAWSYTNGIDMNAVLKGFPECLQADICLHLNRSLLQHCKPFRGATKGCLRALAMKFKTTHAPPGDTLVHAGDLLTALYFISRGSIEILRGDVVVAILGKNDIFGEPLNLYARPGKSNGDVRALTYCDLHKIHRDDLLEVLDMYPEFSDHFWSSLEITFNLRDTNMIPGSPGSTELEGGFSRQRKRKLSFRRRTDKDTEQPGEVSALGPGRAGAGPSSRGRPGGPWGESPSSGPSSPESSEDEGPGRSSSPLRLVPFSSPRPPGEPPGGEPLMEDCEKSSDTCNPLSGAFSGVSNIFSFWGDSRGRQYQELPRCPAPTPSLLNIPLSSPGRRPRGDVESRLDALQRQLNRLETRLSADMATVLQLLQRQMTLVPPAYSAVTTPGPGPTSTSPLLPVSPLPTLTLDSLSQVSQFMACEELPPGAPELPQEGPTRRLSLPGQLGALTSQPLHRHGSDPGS

This assay concerns the target human ether-à-go-go-related gene (hERG) potassium channel (human, UniProt Q12809). Kind of assay: primary screen, population patch clamp on CHO cells stably expressing hERG.
Take `O=C(CN(c1ccc(Cl)cc1)S(=O)(=O)c1ccccc1)N1CCN(c2ccccc2)CC1`: the “hERG current change (%, negative = inhibition) at 1uM” value came to 7.61%. Under `Cc1cc(C)c(S(=O)(=O)N2CCN(S(=O)(=O)N3CCOCC3)CC2)c(C)c1` stands 8.8%; under `COc1cccc(C(=O)NCc2cccnc2)c1`, 10.1%. In the case of `CCC1=NN2C(=N)/C(=C/c3cc(C)n(Cc4ccccc4)c3C)C(=O)N=C2S1`, the “hERG current change (%, negative = inhibition) at 1uM” value was 10%.

Turning to `Cc1ccc(-n2c(=S)[nH]c3sc4c(c3c2=O)CCc2ccccc2-4)cc1`, the “hERG current change (%, negative = inhibition) at 1uM” value worked out at 17.4%. The result for `COC(=O)C1=C(C)N=C2SCCC(=O)N2C1c1ccc(C(=O)OC)cc1` (stereo not shown) reads -3.74%; that for `CCOC(=O)c1ccccc1Nc1cn(C(C)=O)c2ccccc12`, 4.49%. The result for `COCc1nc(-c2ccc(-c3ccc(OC)cc3)nc2OC)no1` reads 16.4%; that for `C=CCC(=O)N(CC)CC1CCCN(CCc2cccc(F)c2)C1` (stereo not shown), -17.6%; that for `O=C(CCCSc1nc2ccccc2[nH]1)NC1CCCCC1`, 18.1%. Under `Fc1ccc2[nH]c3c(N4CCN(c5ccccc5)CC4)ncnc3c2c1` stands 7.4%; under `CCCNCc1nnc(-c2ccccc2Cl)o1`, 5.32%; under `COC(=O)c1ccc2c(c1)C(=O)N(C1CCCCC1)C2=O`, 4.05%. On to `Cc1ccc(-n2c(C)c3c(C)nnc(C)c3c2C)cc1N`, for which the “hERG current change (%, negative = inhibition) at 1uM” value was 6.08%. The result for `Cc1ccc(N2C(=O)N(CC(=O)NC(c3ccccc3)c3ccccc3)C(=O)C2C)cc1` (stereo not shown) reads 5.84%; that for `O=C1CC(c2ccccc2)n2ncnc2N1` (stereo not shown), -4.79%.

For the molecule `CCN(CC)CCCNC(=O)C1c2cc(OC)c(OC)cc2C(=O)N(C)C1c1cccnc1` (stereo not shown), the “hERG current change (%, negative = inhibition) at 1uM” value was determined as 13.7%. For the molecule `COc1ccc(N(CC(=O)NCc2ccccc2Cl)S(=O)(=O)c2c(C)noc2C)cc1`, the “hERG current change (%, negative = inhibition) at 1uM” value was 13.7%. Under `Cc1cc(C(=O)NCC2CCCO2)n(-c2ccccc2)n1` (stereo not shown) stands 2.41%; under `O=C(CNc1ccc2ccccc2c1)N/N=C/C=C/c1cccc([N+](=O)[O-])c1`, 13.8%. The result for `CC1CCCCN1C(=O)CSc1nnc(-c2cccs2)o1` (stereo not shown) reads 9.89%; that for `Cc1nnc(N(C)C(=O)c2cnccn2)s1`, 6.59%; that for `COc1cc2c(cc1N/C=C(\C#N)c1nc(-c3ccccc3)cs1)oc1ccccc12`, 6.05%.

Consider `O=C(N/N=C/c1cccc([N+](=O)[O-])c1)c1cnccn1`, for which the “hERG current change (%, negative = inhibition) at 1uM” value is -4.22%. The result for `COc1cc(N/N=C/c2ccc(N(C)C)cc2)ncn1` reads 12.7%. Under `O=C(Nc1ccc(Br)c2cccnc12)c1ccc(Cn2cc([N+](=O)[O-])cn2)o1` stands 7.15%; under `COc1ccc2oc(C(=O)OCC(=O)Nc3ccc(NC(C)=O)cc3)c(C)c2c1`, 10.9%; under `CCn1c(SCC(=O)Nc2nccs2)nnc1-c1ccc(S(=O)(=O)N2CCCCCC2)cc1`, 13.6%.

On to `COC(=O)c1cc(=O)c2cccc(OC)c2[nH]1`, for which the “hERG current change (%, negative = inhibition) at 1uM” value was 5.26%.

For the molecule `Cc1ccc(C(=O)NNC(=O)c2cccs2)cc1`, the “hERG current change (%, negative = inhibition) at 1uM” value amounted to 10.1%. Under `Cc1noc(C)c1C(=O)N(CC(=O)Nc1ccc(Cl)c(C(F)(F)F)c1)Cc1ccco1` stands 8.49%; under `O=C1COc2ccc(S(=O)(=O)N3CCCCCC3)cc2N1`, 18.3%; under `COCc1nc2ccccc2n1Cc1ccccc1C`, 8.46%. In the case of `CC(=O)c1sc(NC(=O)c2cc(=O)c3ccccc3o2)nc1C`, the “hERG current change (%, negative = inhibition) at 1uM” value turned out to be 14.5%. Under `Cc1cc(=O)n2ccsc2n1` stands 0.473%; under `Cn1c(=O)[nH]c(=O)c2c1nc(N1CCCCC1)n2CCSc1nc2ccccc2o1`, 6.39%; under `CC1=CC(C)C2C(=O)N(c3ccccc3)C(=O)C2C1` (stereo not shown), 10.8%. The result for `COc1ccc2oc(=O)c(C(=O)O)cc2c1` reads 4.58%; that for `Cc1nn(-c2ccccc2)c(N2CCCCC2)c1/C=N/NC(=O)c1ccncc1`, 8.23%; that for `CC(=O)c1cc2c(cc1NC(=O)C1CC=CCC1C(=O)O)OCO2` (stereo not shown), 8.03%.

Regarding `COc1cc(/C=C2\C(=N)N3N=C(S(C)(=O)=O)SC3=NC2=O)cc(OC)c1OCCOc1ccccc1C`, the “hERG current change (%, negative = inhibition) at 1uM” value is listed as 14.3%. The result for `CCN(CC)S(=O)(=O)c1ccc(C)c(NC(=S)N2CCN(C/C=C/c3ccccc3)CC2)c1` reads 12.9%; that for `NCC(=O)Nc1ccc(Br)cc1`, 13.6%; that for `CN1CC(c2ccc(C#N)cc2)C2(COc3ccccc3C2=O)C12C(=O)Nc1ccccc12` (stereo not shown), 3.87%. The result for `Cc1cccc(C)c1NS(=O)(=O)c1ccc(-c2cnc(C3CC3)o2)cc1` reads 8.36%.

For `CCCC1CC(C)(C(=O)Cn2[nH]c(=O)ccc2=O)OC1=O` (stereo not shown), the “hERG current change (%, negative = inhibition) at 1uM” value is 5.67%.

Regarding `O=C(CCCCCn1c(=S)[nH]c2cc3c(cc2c1=O)OCO3)NCCc1ccccc1`, the “hERG current change (%, negative = inhibition) at 1uM” value turned out to be 14%. Under `NC(=O)c1sc2nccc(Nc3ccccc3)c2c1N` stands -1.77%. The result for `O=c1c2ccsc2ncn1Cc1ccc(Cl)cc1` reads 7.79%. Under `N#Cc1ccccc1CN1C(=O)c2ccccc2S1(=O)=O` stands 16.5%. With `O=C(CSc1nnc(COc2ccccc2)o1)N1CCN(c2ccccc2)CC1`, the “hERG current change (%, negative = inhibition) at 1uM” value was found to be 12.2%. Under `COc1ccc(Br)c(/C=N/NC(=O)COc2ccc(-c3ccccc3)cc2)c1` stands 8.4%.

As for `COc1ccc(C(=O)/C(C#N)=N/Nc2ccccc2[N+](=O)[O-])cc1`, the “hERG current change (%, negative = inhibition) at 1uM” value is given as 7.61%. The result for `C=CCn1c(SCC(=O)/C(C#N)=C(\C)N)nnc1C1CCCCC1` reads 2.77%; that for `O=C(CCCOc1ccccc1)NCCc1ccccc1`, 4.62%; that for `CSc1ccccc1C(=O)NC1CC2CCC1C2` (stereo not shown), 6.38%. Under `C=CCOc1ccc(C2=NOC(C(=O)Nc3ccc4c(c3)OCCO4)C2)cc1OC` (stereo not shown) stands 14%. Under `CCC(=O)NC(c1ccco1)c1cc(Cl)c2ccccc2c1O` (stereo not shown) stands 8.08%.

Values taken from article PMC4336329 (PLoS ONE, 2015).
